# Hit rate of the full screen: of about 420,000 compounds, about 64,000 (15%) were called active. Inconclusive means that the source gave no clear call. Such entries were picked first, then a sample of the others. Calls come from the whole dose curve; as a rule, active = well fitted inhibition curve with a large enough effect; inconclusive = small, poorly fitted or top-dose-only effect; inactive = flat fitted curve, though single readings scatter. Potencies of inconclusive entries are left out as doubtful fits.
# Assay: qHTS for Inhibitors of human tyrosyl-DNA phosphodiesterase 1 (TDP1): qHTS in cells in absence of CPT; note: nearly all actives have a fitted effect of over 55% in size
# Settings: DT40 Tdp1-/- hTDP1 cells, no CPT, ATP luminescence, 48 h; activity change, negative = growth inhibition: at 46.2 µM (top of the series)
# Summary of the method: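 DT40 Tdp1-/-;hTDP1 cells, no CPT (DMSO vehicle only), 400 cells/well; compounds pin-transferred; ≥48 hr, 37 °C; CellTiter-Glo 30 min RT dark, luminescence read.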
# % is set by controls: 0 for no effect and ±100 for the full control effect; potency is the fitted concentration of half-maximal effect; tags give direction and shape of the fitted curve.
Compound,Potency,"activity change, negative = growth inhibition"
COc1ccc(CCn2c(=N)c(C(=O)NCC3CCCO3)cc3c(=O)n4cccc(C)c4nc32)cc1 (stereo not drawn),"inconclusive [inhibitor, full curve]",–
COc1ccc(C2(C(=O)NCC3Cc4cccc(-c5cccnc5)c4O3)CCCC2)cc1 (stereo not drawn),"inconclusive [inhibitor, partial curve, poor fit]",–
CC1=C(Nc2ccc(C(=O)O)cc2)C(=O)c2ccccc2C1=O,"inconclusive [inhibitor, single point]",–
Cc1ccc(S(=O)(=O)N2CCC(C(=O)OCC(=O)N3CCCC3=O)CC2)cc1C,inactive,–
Cn1c(-c2ccc(F)cc2)cnc1NCc1ccc(F)cc1F,"inconclusive [inhibitor, single point]",–
CCc1ccc(NC(=O)c2cc3c(C)nc4ccccc4c3o2)cc1,active: 16.4 µM,–
N#CC1=C2SCN(C3CCCCC3)CN2C(=O)CC1c1ccc(F)cc1 (stereo not drawn),active: 16.4 µM,–
Cc1ccc(C)c(C(C)NC(=S)NCc2ccc(F)cc2)c1 (stereo not drawn),"inconclusive [inhibitor, single point]",–
CCC(=O)N1CCc2cc(S(=O)(=O)N(CC)c3cccc(C)c3)ccc21,"inconclusive [inhibitor, partial curve]",–
c1cncc(-c2ccc3ncnc(N4CCNCC4)c3c2)c1,"inconclusive [inhibitor, single point]",–
O=C(/C=C/c1ccccc1)NC1CCS(=O)(=O)C1 (stereo not drawn),"inconclusive [inhibitor, single point]",–
CCCCN1CNC(=S)N(CCc2ccccc2)C1,"inconclusive [inhibitor, partial curve, poor fit]",–
CCN(CC)CCN1C(=O)c2ccccc2NC1c1ccc(C)cc1 (stereo not drawn),"inconclusive [inhibitor, single point]",–
O=C1C=CN2CCCC2CC1 (stereo not drawn),"inconclusive [inhibitor, single point]",–
COC(=O)c1[nH]c(=O)c2ccccc2c1OCc1ccccc1,inactive,–
C[C@H](CO)N1C[C@H](C)[C@@H](CN(C)C(=O)Cc2ccccc2)OCc2cnnn2CCCC1=O,"inconclusive [inhibitor, partial curve, poor fit]",–
Brc1ccccc1OCCCOc1cccc2cccnc12,"inconclusive [inhibitor, single point]",–
Cc1ccc2c(=O)n3c(nc2c1)C(Cc1ccccc1)NC(=O)c1cccnc1-3 (stereo not drawn),"inconclusive [inhibitor, partial curve]",–
Cn1ccsc1=NC(=O)c1cccc(C#N)c1,inactive,–
COc1ccc(CSCCN)cc1Cl,"inconclusive [inhibitor, partial curve, poor fit]",–
COc1ccccc1CNC(=O)c1ccc2c(c1)N(Cc1ccc(C)cc1)CCS2,"inconclusive [inhibitor, single point]",–
CC[N+](C)(C)c1ccc(/C=C/c2ccncc2)cc1,active: 0.631 µM,–
Cc1ccc(-c2csc3ncn(CC(=O)N4CCOCC4)c(=O)c23)cc1C,"inconclusive [inhibitor, single point]",–

Compound,Potency,"activity change, negative = growth inhibition"
Cc1ccc(-c2cc(C(=O)Nc3ccc(S(=O)(=O)Nc4onc(C)c4C)cc3)c3ccccc3n2)cc1,"inconclusive [inhibitor, partial curve]",–
CNc1cc(C(F)(F)F)nc(-c2ccccn2)n1,"inconclusive [inhibitor, single point]",–
COc1ccc2cc(C3c4cc(OC)c(OC)cc4CCN3C(=O)c3ccco3)c(=O)[nH]c2c1 (stereo not drawn),"inconclusive [inhibitor, single point]",–
CC(C)n1c(CN(C)Cc2ccccc2)nc2c1c(=O)n(C)c(=O)n2C,active: 0.411 µM,–
CCN(CC)S(=O)(=O)c1ccc2c(c1)N(CC(=O)NCC(C)c1ccccc1)C(=O)CO2 (stereo not drawn),"inconclusive [inhibitor, single point]",–
CCc1ccccc1NC(=O)CN1C(=O)COc2ccc(S(=O)(=O)N3CCCCCC3)cc21,"inconclusive [inhibitor, single point]",–
CCO[C@H]1OC(C(=O)NCc2nc3ccccc3[nH]2)=C[C@@H](c2ccccc2)[C@@H]1CCCO,"inconclusive [inhibitor, single point]",–
Clc1cccc(Nc2ncnc3c2cnn3-c2ccccc2)c1,"inconclusive [inhibitor, single point]",–
O=C(COC(=O)Cn1cnc2ccccc2c1=O)NCC12CC3CC(CC(C3)C1)C2,"inconclusive [inhibitor, partial curve]",–
O=[N+]([O-])c1ccc(Oc2cccc(F)c2)c2ccncc12,"inconclusive [inhibitor, single point]",–
CCc1cccc(C)c1NC(=S)N(CCN(C)C)C(C)c1ccco1 (stereo not drawn),"inconclusive [inhibitor, single point]",–
CCN(CC)c1ccc(/C=N/NC(=O)c2nnn(-c3nonc3N)c2-c2ccc(C)cc2)cc1,"inconclusive [inhibitor, single point]",–
COc1ccc(-n2c(Cc3cccn3C)nnc2SCC(=O)Nc2cccc(OC)c2)cc1,inactive,–
Cc1ccc(NC(=O)CSc2nc3nn(-c4ccccc4)c(=O)c-3c3n2CCCCC3)cc1F,"inconclusive [inhibitor, single point]",–
CCOC(=O)/C=C/C(=O)N1CCN(C(=O)/C=C/C(=O)OCC)CC1,active: 20.6 µM,–
COc1ccc(C(=O)N2CCCCC2c2cc(C(=O)Nc3ccc(F)c(Cl)c3)no2)cc1 (stereo not drawn),active: 23.1 µM,–
CCOc1cccc(/C=C/c2ccc3cccc(O)c3n2)c1OC,active: 18.4 µM,–
Cc1cccc(C(=O)OC(C)C(=O)NC(=O)NC2CCCCC2)c1O (stereo not drawn),–,inconclusive: -31.1% [inhibitor]
O=C(COc1ccccc1)N1CCN(c2ncnc3c2cnn3-c2ccccc2)CC1,"inconclusive [inhibitor, partial curve]",–
CCOC(=O)c1cnc2c(C#N)c(C)nn2c1-c1ccccc1,"inconclusive [inhibitor, partial curve]",–
CC(=O)Nc1cc(N=Cc2ccc(O)cc2O)c(Cl)cc1Cl,"inconclusive [inhibitor, single point]",–
O=C(NC1CC1)c1ccc2c(Cl)c3c(nc2c1)CCCC3,"inconclusive [inhibitor, single point]",–
Cc1ccc(-n2ncc3c(N4CCCCCC4)ncnc32)cc1C,"inconclusive [inhibitor, single point]",–

Compound,Potency,"activity change, negative = growth inhibition"
Cc1cc(NC(=O)c2sccc2C)n(-c2nc3ccccc3[nH]2)n1,active: 16.4 µM,–
CC(C)(C)c1ccc(C(=O)Nc2cnccn2)cc1,–,inconclusive: -31.5% [inhibitor]
N#CC(C#N)=NNc1ccc2cn[nH]c2c1,active: 4.61 µM,–
CC(=O)Nc1ccc(NC(=O)c2cc(-c3ccccc3)nc3ccccc23)cc1,active: 11.6 µM,–
Cc1cc[n+](-c2[nH]c(=O)sc2/C=N/N=C(\[O-])CCn2c3ccccc3c3ccccc32)cc1,inactive,–
C/C(=N\NC(=O)c1c(Cl)cnn1C)c1cccc(NC(=O)C(C)C)c1,"inconclusive [inhibitor, full curve, poor fit]",–
O=C(NNC(=O)c1ccccc1O)c1ccc(-c2ccc([N+](=O)[O-])cc2)o1,"inconclusive [inhibitor, single point]",–
COc1ccc(Cl)cc1-c1cc2c(c(OC)c1)OCCN(Cc1cccn1-c1nccs1)C2,inactive,–
CC(C)Oc1ccc(CNC(=O)c2ccccc2NC(=O)c2nsc3ccccc23)cc1,"inconclusive [inhibitor, single point]",–
CCCc1cnc(N2CCN(C(=O)c3ccc(F)cc3)CC2)nc1,"inconclusive [inhibitor, partial curve]",–
CCOC(=O)CCc1c(C)c2ccc(OCc3nn[nH]n3)cc2oc1=O,inactive,–
Cc1ccc(CNC(=O)Cc2ccc(Br)cc2)cc1,active: 7.31 µM,–
COc1ccc(NC(=O)COc2ccccc2F)cc1S(=O)(=O)N1CCCCC1,"inconclusive [inhibitor, single point]",–
O=C(Nc1cc(S(=O)(=O)N2CCOCC2)ccc1N1CCCC1)c1ccc2c(c1)S(=O)(=O)c1ccccc1C2=O,"inconclusive [inhibitor, single point]",–
c1ccc(CO/N=C(\c2ccc(C3CC3)nc2)C2CC2)cc1,"inconclusive [inhibitor, single point]",–
C=CCN(C(=O)Nc1ccc2oc(C)nc2c1)c1ccccc1,active: 20.6 µM,–
Cc1cccnc1NC(=O)CNC(=O)C1CCCCC1,inactive,–
O=C(CCn1c(=S)[nH]c2ccccc2c1=O)NCCSCc1ccccc1,"inconclusive [inhibitor, single point]",–
O=C(OCN1C(=O)c2ccccc2C1=O)/C(=C\c1ccco1)NC(=O)c1ccccc1,"inconclusive [inhibitor, single point]",–
COc1cc(OC)cc(-c2c(C#Cc3ccsc3)c3cc(-c4ccc(OC)nc4)ccc3n2C)c1,"inconclusive [inhibitor, single point]",–
O=C(NNC(=S)Nc1ccc(Cl)cc1Cl)c1ccncc1,active: 16.4 µM,–
Clc1ccccc1C1Nc2cccc3cccc(c23)N1,"inconclusive [inhibitor, single point]",–

# Source: PubChem BioAssay AID686978 (National Center for Advancing Translational Sciences (NCATS), 2013)
